{
  "source": "PubChem BioAssay AID1466",
  "about": "(National Center for Advancing Translational Sciences (NCATS), 2008)",
  "note": "The campaign covered roughly 200,000 compounds. About 10 (0.005%) were called active. Inconclusive results, whose numbers are uncertain, are shown with a selection of clear calls. The call rests on the fitted dose curve; in most records, active means well fitted inhibition curve with a large enough effect; inconclusive means small, poorly fitted or top-dose-only effect, or effect the other way, or another doubt; inactive means no such curve, though single readings can be large or run the other way. Potencies of inconclusive entries are left out as doubtful fits. Potency means the concentration at half of the fitted maximal effect; tags describe the fitted curve by direction and shape.",
  "data": [
    {"biological_target": "Lysosomal alpha-glucosidase (Homo sapiens) (UniProt P10253)", "test": "qHTS Assay for Inhibitors of Human alpha-Glucosidase as a Potential Chaperone Treatment of Pompe Disease;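 on activity change, negative = inhibition: plate controls were uninhibited enzyme wells for no effect and no-enzyme background for full effect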", "conditions": "purified human GAA, 4-MU-alpha-glucoside fluorescence; activity change, negative = inhibition: at 76.9 µM (top of the series) unless noted", "method_in_brief": "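Human enzyme at 4 nM with 400 uM 4-methylumbelliferyl-alpha-D-pyranoside, citrate/phosphate buffer pH 5.0, 0.005% Tween-20, 20 min at room temperature. Compounds up to 77 uM. 4-MU fluorescence (Ex 365/Em 440) read after NaOH/glycine stop; AC50 from Hill fit.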", "values": [
      {"compound": "N#Cc1c(N2CCOCC2)nc(-c2ccco2)c2c1CCCC2", "Potency": "inconclusive [activator, partial curve]"},
      {"compound": "CCNS(=O)(=O)c1ccc(CCC(=O)Nc2cc(Cl)ccc2Oc2ccccc2)cc1", "Potency": "inconclusive [inhibitor, full curve]"},
      {"compound": "O=C1CSC(c2nn(-c3ccccc3)cc2-c2cc3ccccc3oc2=O)N1Cc1ccco1", "note": "(configuration not stated)", "activity change, negative = inhibition": "inconclusive: 29.5% [activator]"},
      {"compound": "O=C(COCC(=O)Nc1cccc(C(F)(F)F)c1)Nc1cccc(C(F)(F)F)c1", "Potency": "inconclusive [inhibitor, partial curve]"},
      {"compound": "COc1ccc2oc(C)c(C(=O)NN)c2c1", "Potency": "inconclusive [inhibitor, single point]"},
      {"compound": "CCN1C(=O)C(CC(=O)Nc2c(C)cccc2C)SC1=Nc1ccc(S(N)(=O)=O)cc1", "note": "(configuration not stated)", "Potency": "inconclusive [inhibitor, full curve, poor fit]"},
      {"compound": "CCOC(=O)c1[nH]c2ccc(OCC)cc2c1NC(=O)CN1CCC2(CC1)OCCO2", "activity change, negative = inhibition": "inconclusive: 22.8% [activator]"},
      {"compound": "Cc1cc(C(=O)CCl)c(C)n1-c1ccon1", "Potency": "inconclusive [inhibitor, single point]"},
      {"compound": "N#Cc1c(-c2ccco2)cc(-c2ccc(F)cc2)nc1N", "Potency": "inconclusive [activator, partial curve]"},
      {"compound": "O=C(O)c1ccc(N(c2ccccc2)c2ccccc2)cc1", "Potency": "inconclusive [inhibitor, single point]"},
      {"compound": "CCN(CC(=O)NCCc1ccccc1)S(=O)(=O)c1ccc(Br)cc1", "Potency": "inconclusive [inhibitor, single point]"},
      {"compound": "COc1ccc(C(=O)CSc2nc3c(c(=O)n(C)c(=O)n3C)n2C)cc1", "activity change, negative = inhibition": "inconclusive: 17.8% [activator]"},
      {"compound": "Cc1nc(C(=O)N2CCc3c([nH]c4ccccc34)C2c2ccccn2)cs1", "note": "(configuration not stated)", "activity change, negative = inhibition": "inconclusive: 17.3% [activator]"},
      {"compound": "COCc1cc(=O)[nH]c(/N=C(\\N)Nc2cccc(Cl)c2)n1", "Potency": "inconclusive [inhibitor, single point]"},
      {"compound": "Cc1ccc(N2CCN(S(=O)(=O)N3CCCCC3)CC2)c(C)c1", "activity change, negative = inhibition": "inconclusive: 10.9% [activator]"},
      {"compound": "COc1cc(/C=N/Nc2nc3ccccc3[nH]2)cc(OC)c1O", "Potency": "inactive"},
      {"compound": "CNC(=O)CN1C(=O)CSc2ncccc21", "Potency": "inconclusive [inhibitor, full curve, poor fit]"},
      {"compound": "COc1cc2c(cc1OC)-c1cc(Nc3ccc4c(c3)OCCO4)nc(=O)n1CC2", "Potency": "inconclusive [inhibitor, single point]"},
      {"compound": "Cc1cc(=O)oc2cc(NC(=S)NCc3cccnc3)ccc12", "Potency": "inconclusive [activator, partial curve]"},
      {"compound": "CCCS(=O)(=O)c1c(S(=O)(=O)CCC)c2cc(CC)ccn2c1C(=O)OC", "Potency": "inconclusive [inhibitor, partial curve]"},
      {"compound": "COCCCn1c(=O)/c(=C\\c2ccccc2OC(F)F)s/c1=C(/C#N)C(=O)N1CCOCC1", "activity change, negative = inhibition": "inconclusive: -16.2% [inhibitor]"},
      {"compound": "CCOC(=O)c1c(C)[nH]c(C)c1C(=O)CSc1nc2ccccc2c(=O)n1-c1ccc(Cl)cc1", "Potency": "inconclusive [inhibitor, full curve]"},
      {"compound": "OC(c1cccc(OCc2ccccc2)c1)c1nnc(-c2ccccc2)o1", "note": "(configuration not stated)", "activity change, negative = inhibition": "inconclusive: -22% [inhibitor]"},
      {"compound": "O=C(O)C12CC3CC(C1)CC(n1cnc(Cl)n1)(C3)C2", "Potency": "inconclusive [inhibitor, single point]"},
      {"compound": "CSc1cccc(NC(=S)N(Cc2ccc(C)cc2)Cc2ccccn2)c1", "Potency": "inconclusive [inhibitor, full curve]"},
      {"compound": "CC(C)(C)n1cnc2cc(NS(=O)(=O)c3ccc(Br)cc3)ccc21", "Potency": "inactive"},
      {"compound": "O=C1NC(=S)S/C1=C\\c1ccc(SCc2ccco2)o1", "Potency": "inconclusive [inhibitor, full curve, poor fit]"},
      {"compound": "COc1ccc(/C=C/C2=CC(C)(C)NC(=S)N2)c(OC)c1", "Potency": "inactive"},
      {"compound": "Cc1ccc(-c2cc(-c3ccc(Cl)cc3)c(C#N)c(N)n2)o1", "Potency": "inconclusive [activator, partial curve]"},
      {"compound": "COc1ccc(S(=O)(=O)N2CCOCC2)cc1NC(=O)CO/N=C/c1ccccc1OC(F)F", "Potency": "inconclusive [inhibitor, single point]"},
      {"compound": "CCOC(=O)N1CCN(C(=O)c2cn(CC(C)C)c(=O)c3c2c2ccccc2n3C)CC1", "Potency": "inconclusive [activator, partial curve]"},
      {"compound": "Cc1ccc(C)c(Cc2c(C)nc(C)[nH]c2=O)c1", "Potency": "inconclusive [inhibitor, single point]"},
      {"compound": "COC(=O)c1ccc2c(=O)n(CCCCCC(=O)NCc3ccccn3)c(=O)[nH]c2c1", "Potency": "inconclusive [activator, partial curve]"},
      {"compound": "CC(SC(=S)N(C)Cc1cccs1)C(=O)O", "note": "(configuration not stated)", "activity change, negative = inhibition": "inconclusive: 16.7% [activator]"},
      {"compound": "Cc1cc(C)cc(OCC(=O)Nc2cccc(-c3nc4ncccc4o3)c2)c1", "Potency": "inconclusive [inhibitor, partial curve]"},
      {"compound": "CC(=O)Nc1ccc(NC(=O)Nc2ccc(C)cc2C)cc1", "activity change, negative = inhibition": "inconclusive: 17% [activator]"},
      {"compound": "O=C1CC(=C(c2ccccc2)c2ccccc2)C(=O)N1CCCCN1CCN(c2ccccc2)CC1", "activity change, negative = inhibition": "inconclusive: -15.9% [inhibitor]"},
      {"compound": "Cc1noc(C)c1C(c1ccccc1)c1ccccc1", "Potency": "inconclusive [inhibitor, single point]"},
      {"compound": "Cc1ccc(N(C)S(=O)(=O)c2cccc(C(=O)NC3=NCCS3)c2)cc1", "Potency": "inconclusive [inhibitor, partial curve]"},
      {"compound": "O=C(Nc1nsc(-c2ccccc2)n1)c1ccc(F)cc1", "Potency": "inconclusive [inhibitor, single point]"},
      {"compound": "Cc1ccc([N+](=O)[O-])cc1NC(=O)c1ccc(C(C)(C)C)cc1", "activity change, negative = inhibition": "inconclusive: -17% [inhibitor]"},
      {"compound": "COc1cccc(-n2c(N)c(-c3nc4ccccc4[nH]3)sc2=S)c1", "activity change, negative = inhibition": "inconclusive: -16% [inhibitor]"}
    ]}
  ]
}
